Laboratory results as given in the supplement of paper PMC10724272.

What follows are test systems tested with C[C@@H]1[C@H](O)[C@@H](C)/C=C/C=C/C=C/C=C/C=C/C=C/C=C/[C@H](O[C@@H]2O[C@H](C)[C@@H](O)[C@H](N)[C@@H]2O)C[C@@H]2O[C@](O)(C[C@@H](O)C[C@@H](O)[C@H](O)CC[C@@H](O)C[C@@H](O)CC(=O)O[C@H]1C)C[C@H](O)[C@H]2C(=O)O [amphotericin B] (assay: CLSI broth microdilution.).
For “Candida tropicalis isolate 245 (ERG11 copies: 2, Erg11p: no key change)”, the MIC was 0.5 mg/L [S]. In the case of “Candida tropicalis isolate 435 (ERG11 copies: 2, Erg11p: no key change)”, the MIC is reported as 1 mg/L [S]. “Candida tropicalis isolate 4 (ERG11 copies: 2, Erg11p: no key change)” was tested, and the MIC was 1 mg/L [S]. For “Candida tropicalis isolate 415 (ERG11 copies: 2, Erg11p: no key change)”, the MIC was 1 mg/L [S]. Test System “Candida tropicalis isolate 32 (ERG11 copies: 6, Erg11p: Y132F, S154F (heterozygous))” has an MIC of 1 mg/L [S]. For “Candida tropicalis isolate 295 (ERG11 copies: 2, Erg11p: no key change)”, the MIC was 2 mg/L [S]. Test System “Candida tropicalis isolate 88 (ERG11 copies: 2, Erg11p: no key change)” has an MIC of 1 mg/L [S]. In the case of “Candida tropicalis isolate 90 (ERG11 copies: 2, Erg11p: no key change)”, the MIC is reported as 0.5 mg/L [S]. For “Candida tropicalis isolate 36 (ERG11 copies: 2, Erg11p: no key change)”, the MIC was 1 mg/L [S].

The test systems below were run with CCCCCOc1ccc(-c2ccc(-c3ccc(C(=O)N[C@H]4C[C@@H](O)[C@@H](O)NC(=O)[C@@H]5[C@@H](O)[C@@H](C)CN5C(=O)[C@H]([C@@H](C)O)NC(=O)[C@H]([C@H](O)[C@@H](O)c5ccc(O)cc5)NC(=O)[C@@H]5C[C@@H](O)CN5C(=O)[C@H]([C@@H](C)O)NC4=O)cc3)cc2)cc1 [anidulafungin] (assay: CLSI broth microdilution.).
“Candida tropicalis isolate 297 (ERG11 copies: 2, Erg11p: no key change)” was tested, and the MIC was no more than 0.015 mg/L [S]. In the case of “Candida tropicalis isolate 10 (ERG11 copies: 2, Erg11p: no key change)”, the MIC is reported as 0.03 mg/L [S]. “Candida tropicalis isolate 368 (ERG11 copies: 8, Erg11p: Y132F, S154F (heterozygous))” gave an MIC of 0.12 mg/L [S]. For “Candida tropicalis isolate 104 (ERG11 copies: 2, Erg11p: no key change)”, the MIC was 0.03 mg/L [S]. With “Candida tropicalis isolate 38 (ERG11 copies: 2, Erg11p: no key change)” the MIC was 0.12 mg/L [S]. “Candida tropicalis isolate 437 (ERG11 copies: 2, Erg11p: no key change)” was tested, and the MIC was no more than 0.015 mg/L [S]. “Candida tropicalis isolate 6 (ERG11 copies: 2, Erg11p: no key change)” was tested, and the MIC was 0.06 mg/L [S]. For “Candida tropicalis isolate 328 (ERG11 copies: 2, Erg11p: Y132F, S154F (homozygous))”, the MIC was 0.03 mg/L [S]. “Candida tropicalis isolate 92 (ERG11 copies: 2, Erg11p: no key change)” was tested, and the MIC was 0.12 mg/L [S]. “Candida tropicalis isolate 115 (ERG11 copies: 2, Erg11p: no key change)” showed an MIC of 0.06 mg/L [S]. “Candida tropicalis isolate 141 (ERG11 copies: 2, Erg11p: no key change)” showed an MIC of no more than 0.015 mg/L [S]. Test System “Candida tropicalis isolate 2 (ERG11 copies: 6, Erg11p: Y132F, S154F (homozygous))” has an MIC of 0.06 mg/L [S]. Test System “Candida tropicalis isolate 155 (ERG11 copies: 2, Erg11p: no key change)” has an MIC of 0.03 mg/L [S]. “Candida tropicalis isolate 279 (ERG11 copies: 8, Erg11p: Y132F, S154F (heterozygous))” gave an MIC of 0.03 mg/L [S]. “Candida tropicalis isolate 252 (ERG11 copies: 2, Erg11p: no key change)” showed an MIC of 0.03 mg/L [S]. Work on “Candida tropicalis isolate 349 (ERG11 copies: 7, Erg11p: Y132F, S154F (heterozygous))” yielded an MIC of 0.06 mg/L [S]. “Candida tropicalis isolate 146 (ERG11 copies: 2, Erg11p: no key change)” showed an MIC of 0.03 mg/L [S]. With “Candida tropicalis isolate 257 (ERG11 copies: 2, Erg11p: no key change)” the MIC was no more than 0.015 mg/L [S]. With “Candida tropicalis isolate 321 (ERG11 copies: 2, Erg11p: no key change)” the MIC was 0.25 mg/L [S]. For “Candida tropicalis isolate 412 (ERG11 copies: 2, Erg11p: no key change)”, the MIC was 0.06 mg/L [S]. With “Candida tropicalis isolate 182 (ERG11 copies: 2, Erg11p: no key change)” the MIC was 0.25 mg/L [S]. In the case of “Candida tropicalis isolate 89 (ERG11 copies: 2, Erg11p: no key change)”, the MIC is reported as 0.12 mg/L [S]. “Candida tropicalis isolate 201 (ERG11 copies: 2, Erg11p: Y132F, S154F (heterozygous))” showed an MIC of 0.12 mg/L [S]. Test System “Candida tropicalis isolate 169 (ERG11 copies: 2, Erg11p: no key change)” has an MIC of 0.03 mg/L [S]. “Candida tropicalis isolate 398 (ERG11 copies: 2, Erg11p: Y132F, S154F (heterozygous))” gave an MIC of 0.03 mg/L [S]. “Candida tropicalis isolate 14 (ERG11 copies: 2, Erg11p: no key change)” was tested, and the MIC was 0.06 mg/L [S]. Work on “Candida tropicalis isolate 64 (ERG11 copies: 2, Erg11p: no key change)” yielded an MIC of no more than 0.015 mg/L [S]. Test System “Candida tropicalis isolate 245 (ERG11 copies: 2, Erg11p: no key change)” has an MIC of no more than 0.015 mg/L [S]. In the case of “Candida tropicalis isolate 435 (ERG11 copies: 2, Erg11p: no key change)”, the MIC is reported as 0.12 mg/L [S]. For “Candida tropicalis isolate 4 (ERG11 copies: 2, Erg11p: no key change)”, the MIC was 0.06 mg/L [S]. With “Candida tropicalis isolate 415 (ERG11 copies: 2, Erg11p: no key change)” the MIC was 0.03 mg/L [S]. “Candida tropicalis isolate 32 (ERG11 copies: 6, Erg11p: Y132F, S154F (heterozygous))” was tested, and the MIC was 0.25 mg/L [S]. “Candida tropicalis isolate 295 (ERG11 copies: 2, Erg11p: no key change)” gave an MIC of 0.03 mg/L [S]. “Candida tropicalis isolate 88 (ERG11 copies: 2, Erg11p: no key change)” gave an MIC of no more than 0.015 mg/L [S]. Work on “Candida tropicalis isolate 90 (ERG11 copies: 2, Erg11p: no key change)” yielded an MIC of 0.06 mg/L [S]. For “Candida tropicalis isolate 36 (ERG11 copies: 2, Erg11p: no key change)”, the MIC was 0.03 mg/L [S].

The test systems below were run with CC[C@H](C)C[C@H](C)CCCCCCCCC(=O)N[C@H]1C[C@@H](O)[C@@H](NCCN)NC(=O)[C@@H]2[C@@H](O)CCN2C(=O)[C@H]([C@H](O)CCN)NC(=O)[C@H]([C@H](O)[C@@H](O)c2ccc(O)cc2)NC(=O)[C@@H]2C[C@@H](O)CN2C(=O)[C@H]([C@@H](C)O)NC1=O [caspofungin] (assay: CLSI broth microdilution.).
“Candida tropicalis isolate 297 (ERG11 copies: 2, Erg11p: no key change)” showed an MIC of 0.06 mg/L [S]. In the case of “Candida tropicalis isolate 10 (ERG11 copies: 2, Erg11p: no key change)”, the MIC is reported as 0.03 mg/L [S]. “Candida tropicalis isolate 368 (ERG11 copies: 8, Erg11p: Y132F, S154F (heterozygous))” showed an MIC of 0.03 mg/L [S]. With “Candida tropicalis isolate 104 (ERG11 copies: 2, Erg11p: no key change)” the MIC was 0.03 mg/L [S]. Test System “Candida tropicalis isolate 38 (ERG11 copies: 2, Erg11p: no key change)” has an MIC of 0.12 mg/L [S]. In the case of “Candida tropicalis isolate 437 (ERG11 copies: 2, Erg11p: no key change)”, the MIC is reported as 0.03 mg/L [S]. “Candida tropicalis isolate 6 (ERG11 copies: 2, Erg11p: no key change)” showed an MIC of 0.06 mg/L [S]. In the case of “Candida tropicalis isolate 328 (ERG11 copies: 2, Erg11p: Y132F, S154F (homozygous))”, the MIC is reported as 0.03 mg/L [S]. In the case of “Candida tropicalis isolate 92 (ERG11 copies: 2, Erg11p: no key change)”, the MIC is reported as 0.03 mg/L [S]. With “Candida tropicalis isolate 115 (ERG11 copies: 2, Erg11p: no key change)” the MIC was 0.03 mg/L [S]. With “Candida tropicalis isolate 141 (ERG11 copies: 2, Erg11p: no key change)” the MIC was 0.06 mg/L [S]. Work on “Candida tropicalis isolate 2 (ERG11 copies: 6, Erg11p: Y132F, S154F (homozygous))” yielded an MIC of 0.03 mg/L [S]. “Candida tropicalis isolate 155 (ERG11 copies: 2, Erg11p: no key change)” was tested, and the MIC was 0.03 mg/L [S]. For “Candida tropicalis isolate 279 (ERG11 copies: 8, Erg11p: Y132F, S154F (heterozygous))”, the MIC was 0.03 mg/L [S]. In the case of “Candida tropicalis isolate 252 (ERG11 copies: 2, Erg11p: no key change)”, the MIC is reported as 0.12 mg/L [S]. For “Candida tropicalis isolate 349 (ERG11 copies: 7, Erg11p: Y132F, S154F (heterozygous))”, the MIC was 0.06 mg/L [S]. For “Candida tropicalis isolate 146 (ERG11 copies: 2, Erg11p: no key change)”, the MIC was 0.06 mg/L [S]. Work on “Candida tropicalis isolate 257 (ERG11 copies: 2, Erg11p: no key change)” yielded an MIC of 0.015 mg/L [S]. Test System “Candida tropicalis isolate 321 (ERG11 copies: 2, Erg11p: no key change)” has an MIC of 0.25 mg/L [S]. With “Candida tropicalis isolate 412 (ERG11 copies: 2, Erg11p: no key change)” the MIC was 0.03 mg/L [S]. Work on “Candida tropicalis isolate 182 (ERG11 copies: 2, Erg11p: no key change)” yielded an MIC of 0.06 mg/L [S]. “Candida tropicalis isolate 89 (ERG11 copies: 2, Erg11p: no key change)” gave an MIC of 0.03 mg/L [S]. Test System “Candida tropicalis isolate 201 (ERG11 copies: 2, Erg11p: Y132F, S154F (heterozygous))” has an MIC of 0.03 mg/L [S]. “Candida tropicalis isolate 169 (ERG11 copies: 2, Erg11p: no key change)” gave an MIC of 0.03 mg/L [S]. “Candida tropicalis isolate 398 (ERG11 copies: 2, Erg11p: Y132F, S154F (heterozygous))” showed an MIC of 0.03 mg/L [S]. For “Candida tropicalis isolate 14 (ERG11 copies: 2, Erg11p: no key change)”, the MIC was 0.25 mg/L [S]. “Candida tropicalis isolate 64 (ERG11 copies: 2, Erg11p: no key change)” was tested, and the MIC was 0.03 mg/L [S]. “Candida tropicalis isolate 245 (ERG11 copies: 2, Erg11p: no key change)” showed an MIC of 0.03 mg/L [S]. “Candida tropicalis isolate 435 (ERG11 copies: 2, Erg11p: no key change)” showed an MIC of 0.03 mg/L [S]. For “Candida tropicalis isolate 4 (ERG11 copies: 2, Erg11p: no key change)”, the MIC was 0.03 mg/L [S]. Test System “Candida tropicalis isolate 415 (ERG11 copies: 2, Erg11p: no key change)” has an MIC of 0.03 mg/L [S]. “Candida tropicalis isolate 32 (ERG11 copies: 6, Erg11p: Y132F, S154F (heterozygous))” showed an MIC of 0.03 mg/L [S]. “Candida tropicalis isolate 295 (ERG11 copies: 2, Erg11p: no key change)” was tested, and the MIC was 0.03 mg/L [S]. “Candida tropicalis isolate 88 (ERG11 copies: 2, Erg11p: no key change)” gave an MIC of 0.03 mg/L [S]. Work on “Candida tropicalis isolate 90 (ERG11 copies: 2, Erg11p: no key change)” yielded an MIC of 0.03 mg/L [S]. With “Candida tropicalis isolate 36 (ERG11 copies: 2, Erg11p: no key change)” the MIC was 0.03 mg/L [S].

MIC of invasive clinical C. tropicalis isolates, CLSI broth microdilution (fluconazole 0.12-256 mg/L, up to 1,024 for the azole-resistant cluster and its neighbour group; other ranges not stated); higher = less susceptible. Call: susceptible or wild type [S] / resistant or non-wild type [R] by CLSI breakpoints or cut-offs; intermediate and dose-dependent carry no call. '<=' and '>=' at the end values are inferred; the source marks only some of them. Isolates are numbered anew.
